# According to the supplement of paper PMC11417369:
# The list shows a part of the results.
# System: PfHDP1 homeodomain (GST-tagged)
# Assay: gcPBM binding intensity (ln(normalized median fluorescence intensity)); higher = stronger DNA binding
# In short: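 Binding intensity is defined as the maximum Masliner-normalised natural-log median intensity across replicate spots for either probe orientation. It was measured on an Agilent 4 × 180k array of primer-extended double-stranded 36-bp intergenic genomic probes and negative controls, to which GST-tagged P. falciparum DNA-binding domains made in E. coli were applied for 1 h in 1× PBS with 1% milk, 0.2 mg/ml BSA, 0.5% salmon testes DNA and 0.03% Triton X-100. Detection was by Alexa488 anti-GST antibody and scanning at 488 nm.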
row,Sequence,gcPBM binding intensity (ln)
1,ATATATTTTGATTGCACACAGAATTTAAATCATGAT [CACACA_site2343],9.3
2,GAAGATATATAATAATTCATAGTTTTTTAATTTAAA [TGCATGCA_negctrl_site295],5.85
3,TACTTTTTTATTTGGTGTACAAATAAAATCATAATG [XGTACX_site1802],6.66
4,CTCTTTTCTTATAATACACACAGTAATATTTATATA [CACACA_site6824],7.16
5,AATAAAAAAAATTTCTGTACATATATTTATTATATA [XGTACX_site1883],6.12
6,ATTCCTTTATTATCACGTACTTATAAAATATAGTAT [XGTACX_site7498],7.3
7,TTTTAATAAATCATTTTCCTAATATTTATATTTGCT [TGCATGCA_negctrl_site232],5.98
8,TTTTTCATTTAGCTTTTACACACTATATATTATTGA [CACACA_site7888],6.87
9,TTATATATATATTGTTCACACATAATATAAATATTT [CACACA_site5835],6.39
10,ATAAACAGATAAAAGGGTACACACATATATACATGT [XGTACX_site452],6.67
11,TTAAATAAAATAAAAACATGCACACTTTATTTTTTT [TGCATGCA_site719],8.13
12,ATTATTTTTTTTGAAGTGCAATATTATTTTTAATCA,8.94
13,ATGTGGATTTTATAATGTACATATGATATTATTTTG [XGTACX_site7930],6.35
14,ATGGTTATATTTGAAGTGCAAAAAAAAATATATGTA,8.81
15,TATACTACCCAGAGCTGTACAAAATAATAATAAGTT [XGTACX_site1045],6.69
16,CAATTCAATATATATACACACACACTATTAATAATT [CACACA_site9256],6.89
17,GTTAAGTGGATATATACACACATATGCAATACATGA [CACACA_site7427],7.36
18,TATTTAATTTTTAAATGTACATATAAAATAATATAT [XGTACX_site2422],6.26
19,AAAAAAAATTTCTTCTGTACGCATAAATTTTTATTA [XGTACX_site8721],6.25
20,TTTTTCAGAAAAGAAACACACATATATATATTTATA [CACACA_site2372],6.43
21,CATATAAAATAATTCACACAAATATACAAATACCCA [CACACA_site5340],6.83
22,CCTATCCAGACATATACACACATATCTATTTATATA [CACACA_site5001],7.11
23,TTTACTTTCCCAAGTTGTACTGCTTCTAAGCTTTTT [XGTACX_site2708],6.3

row,Sequence,gcPBM binding intensity (ln)
1,TATAAAAAATAATACACACACATGGCGACAAAATAA [CACACA_site2420],7.11
2,AATGATAATATTTCCTTCTTTTTTACTTCTTTCTTT [CACACA_negctrl_site776],6.41
3,AAAATGGTTTATAAATGTACATATATTATATATAAC [XGTACX_site7959],6.62
4,AAAAATATAATATAATGTACACAAAAAAAAAAATTC [XGTACX_site3657],6.63
5,TTTTTATAACGTAATAAATAAAACGTCTATACTATA [XGTACX_negctrl_site176],6.3
6,TATATTATTATAATTTGTACATATCTAATTATATAT [XGTACX_site5342],6.58
7,TAAAGATATTATTTTTGTACATATTGATATAATGAA [XGTACX_site6571],6.31
8,AATTAGACATAATATACACACATATATTATAGATAT [CACACA_site7297],6.5
9,ACGTTTTATAATTAATGTACAAATATTAAAATTGCA [XGTACX_site7869],6.47
10,GAATAAATTAAAAATGCACACTTTGATGGGTACATT [CACACA_site5220],8.68
11,TATATTTGCAGTAATAATAATTATTATAAAAGATAA [XGTACX_negctrl_site547],6.92
12,TATGAATGGTTAAGTACACACATATTAAGATATGTA [CACACA_site5852],6.13
13,TCATATATTTATGTATGTACATATATATATAGATTA [XGTACX_site380],6.36
14,TTATTTATTTTAAATTCACACATCGTGCTATTATAT [CACACA_site5003],6.34
15,CTTTATAAAATAAGAGTGCGTTATATTGAATTGTAT [GTGCAC_site9390],6.94
16,ATATAAGATTTAAGAAGTACAATTATACAGTAGATC [XGTACX_site7501],6.71
17,ATATAACATAGACACACACACATATAAATATATTAT [CACACA_site7865],6.83
18,GGGAAAGAACCATATACATGCATATTTACCGTTAAA [TGCATGCA_site519],6.17
19,CATATACATACACATACACACATACAGACATACACA [CACACA_site6919],7.2
20,TGAAATTTTATTAATGTGCACATATATTTATTGTTC,10.8
21,ATCACTTGAGAATAATTACATTAATATATATTTATG [TGCATGCA_negctrl_site581],6.21
22,CTTTTTAATTAATACACACACACACCCATATATATA [CACACA_site2292],7.46
23,ATAAAAATGTATATATGTACATATATATATATATAT [XGTACX_site1505],9.15

row,Sequence,gcPBM binding intensity (ln)
1,GTAAAAAAAAAAAAATGTACACATATATATAATATA [XGTACX_site159],6.5
2,TTTTTTTTTTTTAATACACACATATATATATTTATT [CACACA_site3994],6.78
3,AACATAATTAAAAATTGTACAGAATTTCAATCGAAA [XGTACX_site7542],6.35
4,TTATTATATATAAGTAGTACAAACAATTAAGAGATA [XGTACX_site4009],6.85
5,TGATGATATAAAAACACACACATATAACATAATACT [CACACA_site6687],6.84
6,ATTGTCTTTTAATAGTGTACTTATTTTAAATATTGC [XGTACX_site8517],6.71
7,TTTCTAATATATAAAGTGCAATACCATTCAGAGTTA,8.41
8,AAGAAAATAAAATAAAATAAAATAAAATAAAAATAT [TGCATGCA_negctrl_site493],6.49
9,TATAATTTATAAGTAGTGCATTTCTTTTCATTTTTA,9.12
10,TTTTATAGAGTGTATACATGCAATACCACATAAAAT [TGCATGCA_site476],6.65
11,ATATGGAAGAATTAAAGTACTTAAAAAAATGTCAGT [XGTACX_site6837],6.98
12,ATATTATCCCTATTTGCACACAAGAGTAATTTTTTA [CACACA_site3908],10.4
13,TTTCTTTCTATTGTTATATTTATAATAATTATAATT [XGTACX_negctrl_site215],6.78
14,TGTTTAAGTGTTTTTAGTACTTATAAAAATATTATC [XGTACX_site7379],6.1
15,TATAAAATTACATTTTGTCATTTATTTTTTCCCACT [TGCATGCA_negctrl_site110],6.24
16,TTATACGATAATATGACACACAATACAAAAATGTAA [CACACA_site1918],6.44
17,CCTATAAAACCATATACACACATATATATAAAAAAA [CACACA_site4013],6.65
18,TGTTTCTAAAAATTTACACACAAAATATTTCTACAT [CACACA_site4098],6.35
19,AAAAAAAAAAAAATTGCATGTAAATGAAATAATAAA [TGCATGCA_site116],6.44
20,AAAGAAGAAAAATATAGTACAGGGCACATGTCCTGT [XGTACX_site6293],5.77
21,TTATTTTTATATTTCACACACATATACTTTTACATA [CACACA_site4097],6.73
22,ATTTAAATTTAAAAAACACACATAATATGATATATA [CACACA_site1973],6.69
23,AAATAAAATATTACATGTACATGTTCATAAAAAAAA [XGTACX_site1067],6.35

row,Sequence,gcPBM binding intensity (ln)
1,ATAAATTAATGGAGAAATCTTATGAATTTATTTTAA [CACACA_negctrl_site1068],5.71
2,TATTGTAGTCATGCACGTACAAAAGGAAAGTTAAAA [XGTACX_site4446],8.65
3,AATATATACATATATACACACACATATATTATATAT [CACACA_site7980],6.88
4,TAAATATAAGTGTACATACACACTTTACAATCTCAT [CACACA_site3006],6.28
5,AATAAAAAGGAACACACACACACACCGATATATATA [CACACA_site5895],6.85
6,TACATACACAGACACACACACATATATATATATATA [CACACA_site3557],9.32
7,CTTATTTTATTCGAATGTACATAATTGTTAGACATT [XGTACX_site8583],6.58
8,TTTTACAAATGTTTTACACACACATAATTGTATCAA [CACACA_site4166],6.73
9,AAAAAAAGGATGTACGTATCATAATTTTATTTTATA [CACACA_negctrl_site1543],6.06
10,ATGGTTTAATTATATACACACTCGAAAATAACGACA [CACACA_site3258],6.63
11,TGATATTATATTGTGATGCACTTTAAAAATATAAAG [GTGCAC_site9509],7.24
12,CTTAAGTAAAATTAAAGTACATGGACAAAAAATATA [XGTACX_site7900],6.69
13,TATCTCATGCGCACAAAAATATATGCAAAGAGTATA [TGCATGCA_negctrl_site201],8.26
14,AATAATAACAAATGAACACACATATAGATGAGCAAA [CACACA_site7076],7.97
15,CAATTTTACTCATAAACACACATATATATGTTATTA [CACACA_site3152],6.86
16,ATATGTGTTAAAAATGCACACAAAAAAATATACATA [CACACA_site7988],9.74
17,TGGGTATATATAAAAGGTACACAAAATGAAGATATA [XGTACX_site4994],7.07
18,TTTTCTGTGTTTTTGGGTACACACAAATAGCTTGTA [XGTACX_site8553],6.85
19,TAATTTCTTATGTATTGTACAAATAATATATTATAT [XGTACX_site1037],6.6
20,AATATATACATACATACATGCATACATATATATAAC [TGCATGCA_site371],6.51
